Reference: PubChem BioAssay AID624417 (National Center for Advancing Translational Sciences (NCATS), 2012)
Values joined by “and” are separate entries in the source; they are usually repeats but may differ in a detail not shown here. Equal values may be shown once. In all, about 410,000 compounds went through this assay and about 6,400 (1.6%) were called active. Inconclusive means that the source gave no clear call. Such entries were picked first, then a sample of the others. Calls come from the whole dose curve; as a rule, active = well fitted inhibition curve with a large enough effect; inconclusive = small, poorly fitted or top-dose-only effect; inactive = no such curve, though single readings can be large or run the other way. Potencies beside an inconclusive call are fits to weak or partial responses and may not hold up.

Target: Glucagon-like peptide 1 receptor (Homo sapiens) (UniProt P43220)
Sequence of UniProt P43220 (P43220 whole entry, looked up): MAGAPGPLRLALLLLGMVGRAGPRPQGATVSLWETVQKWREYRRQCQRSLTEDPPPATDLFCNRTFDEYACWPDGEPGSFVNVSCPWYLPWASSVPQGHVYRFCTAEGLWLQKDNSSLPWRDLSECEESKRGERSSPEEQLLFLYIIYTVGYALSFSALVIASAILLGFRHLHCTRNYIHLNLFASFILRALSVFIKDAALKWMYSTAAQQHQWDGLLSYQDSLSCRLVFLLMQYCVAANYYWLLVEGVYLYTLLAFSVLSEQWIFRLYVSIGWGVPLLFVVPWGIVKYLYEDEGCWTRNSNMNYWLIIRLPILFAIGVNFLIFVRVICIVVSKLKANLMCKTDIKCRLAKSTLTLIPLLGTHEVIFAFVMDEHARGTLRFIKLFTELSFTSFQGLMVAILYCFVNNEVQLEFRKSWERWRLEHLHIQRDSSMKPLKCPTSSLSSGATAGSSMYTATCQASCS
Experiment: qHTS of GLP-1 Receptor Inverse Agonists (Inhibition Mode); note: nearly all actives have a fitted effect of over 55% in size
Conditions: HEK293 GLP-1R CRE-luciferase, luminescence, 24 h, GLP-1R form is constitutively active; series mostly up to 38.3 µM
Procedure, shortened: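 HEK293 cells stably co-expressing constitutively active GLP-1R and a cAMP-responsive luciferase reporter were seeded in DMEM with 10% Nu serum, given compounds after 12 h, and incubated 24 h at 37 deg C. Luminescence was then read.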
Potency is the fitted concentration of half-maximal effect; tags give direction and shape of the fitted curve.

| SMILES | Potency |
| --- | --- |
| O=C(c1cc2ccccc2[nH]1)N(Cc1cccnc1)CC1CCCN(C2CCCCC2)C1 (stereo not given) | inconclusive: 28.2 µM [inhibitor, single point] |
| O=C(N1CCN(c2ccccn2)CC1)N1c2ccccc2Sc2ccccc21 | inconclusive: 22.4 µM [inhibitor, partial curve, poor fit] |
| CC1CC(C)CN(CC(O)COC2CC(C)CC(C)(C)C2)C1 (stereo not given) | inconclusive: 11.2 µM [inhibitor, partial curve, poor fit] |
| CC(NC(=O)c1cccs1)c1ccc(Cl)cc1 (stereo not given) | inconclusive: 11.2 µM [inhibitor, partial curve, poor fit] |
| CC(C)CCN(C(=S)Nc1cccc(F)c1)C(C)c1cccs1 (stereo not given) | inconclusive: 28.2 µM [inhibitor, single point] |
| Cc1ccc(C)c(N2CCN(C(=O)CCn3c(=S)[nH]c4cc5c(cc4c3=O)OCO5)CC2)c1 | inactive |
| CC(C)(C)c1ccc(/C=C(\c2nc3ccccc3[nH]2)S(=O)(=O)c2ccccc2)cc1 | inconclusive: 2 µM [inhibitor, full curve, poor fit] |
| Cc1nc(Nc2cccc(F)c2)c2oc3ccccc3c2n1 | inconclusive: 28.2 µM [inhibitor, single point] |
| COc1cccc(/C=N/Nc2snc(SC)c2C#N)c1O | inconclusive: 2.82 µM [inhibitor, full curve, poor fit] |
| CCOC(=O)c1c(C)n(-c2ccc(C)cc2)c2ccc(OCC(O)CNCC3CCCO3)cc12 (stereo not given) | inconclusive: 10 µM [inhibitor, partial curve, poor fit] |
| Cc1cc(-n2c(C)cc(C(=O)CSc3[nH]c(=O)cc(C(F)(F)F)c3C#N)c2C)no1 | inconclusive: 28.2 µM [inhibitor, single point] |
| CCCC(C)NC(=O)c1cc(Cl)ccc1OC (stereo not given) | inconclusive: 28.2 µM [inhibitor, single point] |
| Cc1cccc(CNC(=O)c2cc3cc(S(=O)(=O)N4CCCCC4)ccc3n2C)c1 | inconclusive: 11.2 µM [inhibitor, partial curve, poor fit] |
| COc1ccc(-c2nn(-c3ccccc3)cc2/C=N/Nc2ccccn2)cc1OC | inconclusive: 11.2 µM [inhibitor, partial curve, poor fit] |
| COc1ccc(NC(=S)N2C3CCC2CC(NC(=O)NC24CC5CC(CC(C5)C2)C4)C3)c(OC)c1 (stereo not given) | inconclusive: 28.2 µM [inhibitor, single point] |
| Nc1nc(-c2ccccc2)c(N=Nc2ccccc2Cl)s1 | inconclusive: 28.2 µM [inhibitor, single point] |
| CCc1ccc(S(=O)(=O)c2cn(Cc3ccccc3)c3cc(N4CCCC4)c(F)cc3c2=O)cc1 | inactive |
| COc1ccc(N=C2SCC(c3ccccc3)=NN2C)cc1 | inconclusive: 11.2 µM [inhibitor, single point] |
| CCc1nn(C(C)C(=O)NC(C)CCc2ccco2)c(=O)c2cc3occc3n12 (stereo not given) | inconclusive: 11.2 µM [inhibitor, partial curve, poor fit] |
| O=C(C1CCCCC1)N1CCCc2ccccc21 | inconclusive: 25.1 µM [inhibitor, single point] |

| SMILES | Potency |
| --- | --- |
| COc1ccc(C)cc1NC(=O)c1ccc(CN2CCc3ccccc3C2)cc1 | inconclusive: 10 µM [inhibitor, partial curve, poor fit] |
| CCN(CC)c1ccc(/C=C(/C#N)C(=O)NCc2ccccc2)o1 | inactive |
| COc1ccc(C(=O)NNC(=O)C2=NN(c3ccccc3)C(=O)CC2)cc1 | inconclusive: 14.1 µM [inhibitor, partial curve, poor fit] |
| C#Cc1ccc([C@H]2C=C(C(=O)Nc3ccccc3)O[C@@H](OCc3ccc(CO)cc3)C2)cc1 | inconclusive: 28.2 µM [inhibitor, single point] |
| CCc1[nH]nc(C(=O)N2CCCC(C(=O)c3cccc(C(F)(F)F)c3)C2)c1C (stereo not given) | inconclusive: 14.1 µM [inhibitor, single point] |
| Cc1ccc(Cl)cc1N1CCN(C(=O)CCS(=O)(=O)c2cc(Br)cc3c2N(C(=O)C2CC2)CC3)CC1 | inactive |
| CCc1nc2c(OCC3CCCCC3)cccn2c1N(C)C(=O)c1ccccc1F | inconclusive: 10 µM [inhibitor, single point] |
| Oc1ccc(C(c2nnnn2CCc2ccccc2)N2CCN(c3nc4ccccc4s3)CC2)cc1 (stereo not given) | inconclusive: 15.8 µM [inhibitor, partial curve, poor fit] |
| O=C(Nc1ccc2c(c1)CCCN2C(=O)c1cccs1)c1ccc(F)c(F)c1 | inconclusive: 8.91 µM [inhibitor, partial curve, poor fit] |
| CCOc1ccc(C(=O)NCc2ccccc2)cc1Br | inconclusive: 12.6 µM [inhibitor, partial curve, poor fit] |
| CC(C)(C)[C@@H]1CCC(=O)N(CC[C@H](N=[N+]=[N-])c2ccccc2)CC1 | inconclusive: 12.6 µM [inhibitor, single point] |
| Cc1ccc(CN(C)C(=O)c2c(C)nn(-c3ccccc3)c2C)cc1 | inconclusive: 28.2 µM [inhibitor, single point] |
| COc1ccc(-c2noc(CC(=O)N(C)c3cccc(C)c3)n2)cc1 | inconclusive: 10 µM [inhibitor, partial curve, poor fit] |
| Cc1ccc(S(=O)(=O)CS(=O)(=O)c2ccc(C)cc2)cc1 | inactive |
| CCOC(=O)C1CCN(C(=O)c2ccccc2CCc2ccccc2)CC1 | inconclusive: 28.2 µM [inhibitor, single point] |
| COc1cccc(COc2ccc3c(C)c(Cc4ccccc4)c(=O)oc3c2)c1 | inconclusive: 28.2 µM [inhibitor, single point] |
| CC(=O)OCC(=O)Nc1ccccc1C | inactive |
| C[C@@H]1CN([C@@H](C)CO)C(=O)c2cccc(NC(=O)Nc3ccc(F)cc3)c2O[C@@H]1CN(C)Cc1ccc(Oc2ccccc2)cc1 | inconclusive: 5.62 µM [inhibitor, full curve, poor fit] |
| CCc1nc2c(OCCn3cccc3)cccn2c1N(C=O)Cc1ccccc1 | inactive |
| COCCn1c(C)cc(O)c(C(c2ccccc2OC)N2CCN(c3ccccc3)CC2)c1=O (stereo not given) | inactive |

| SMILES | Potency |
| --- | --- |
| CSCCC(NS(=O)(=O)c1ccccc1F)C(=O)OCc1ccccc1Cl (stereo not given) | inconclusive: 3.98 µM [inhibitor, partial curve, poor fit] |
| CCCCNc1c(-c2ccc(OC)c(SC(C)CC)c2)nc2cc(C)ccn12 (stereo not given) | inconclusive: 22.4 µM [inhibitor, single point] |
| COc1ccccc1C1CC(c2ccccc2)=NN1C(=O)c1ccccc1 (stereo not given) | active: 8.91 µM |
| CC1(C)CC(=O)c2sc(N)nc2C1 | inconclusive: 0.501 µM [inhibitor, full curve, poor fit] |
| COc1ccccc1/C=C/c1nc(C#N)c(NC2CCCCC2)o1 | inconclusive: 10 µM [inhibitor, single point] |
| CCOc1ccc2c(c1)c(C(C)=O)c(C)n2-c1ccccc1 | inconclusive: 11.2 µM [inhibitor, partial curve, poor fit] |
| CC(=O)NC(C)(c1ccccc1)c1nc(-c2ccc(F)c(Cl)c2)cs1 (stereo not given) | inconclusive: 28.2 µM [inhibitor, single point] |
| O=C(Nc1cccc2c1CCCC2)c1cc(C2CCCCN2C(=O)c2cccs2)on1 (stereo not given) | inconclusive: 11.2 µM [inhibitor, partial curve, poor fit] |
| COc1cccc(CNC(=O)C2CCCN(S(=O)(=O)N(C)c3ccc(F)cc3)C2)c1OC (stereo not given) | inconclusive: 2.82 µM [inhibitor, single point] |
| COCCCNC(=S)N1CCCN(c2nc3cc(C)c(C)cc3cc2C#N)CC1 | inconclusive: 31.6 µM [inhibitor, single point] |
| CN(CC(=O)Nc1ccc(OC(F)(F)F)cc1)C(=O)c1ccccc1SCC(=O)N1CCCC1 | inconclusive: 28.2 µM [inhibitor, single point] |
| O=C(c1ccccc1OCc1ccc(Cl)cc1)N1CCN(c2ccccn2)CC1 | inconclusive: 31.6 µM [inhibitor, single point] |
| COc1ccc(N2C(=S)NC3c4cc(Cl)ccc4OC2(C)C3C(=O)N(C)C)cc1 (stereo not given) | inconclusive: 28.2 µM [inhibitor, single point] |
| COc1ccc(N2CCN(C(=O)CSc3nc4[nH]ncc4c(=O)n3-c3cccc4ccccc34)CC2)cc1 | inconclusive: 28.2 µM [inhibitor, single point] |
| OCCC1CN(Cc2cccn2-c2nccs2)CCN1Cc1ccc(F)c(F)c1 (stereo not given) | inconclusive: 2.82 µM [inhibitor, single point] |
| CSCCC(C(=O)NC(C)(C)C)n1c(-c2ccc3c(c2)OCO3)nc2ccccc21 (stereo not given) | inactive |
| CCOCN(C(=O)Cn1c(COC)nc2ccccc21)c1c(C)cccc1CC | inconclusive: 11.2 µM [inhibitor, single point] and inconclusive: 28.2 µM [inhibitor, single point] |
| COc1ccc(Cl)cc1NC(=O)CSc1nccn1-c1ccc(Cl)cc1 | inactive |
| Cc1cc(/C=C(/C#N)c2nc3ccccc3[nH]2)c(C)n1-c1cccc([N+](=O)[O-])c1 | inconclusive: 7.94 µM [inhibitor, partial curve, poor fit] |
| O=C(c1ccc(COc2ccc(Br)cc2)o1)N1N=C(C(F)F)CC1(O)C(F)F (stereo not given) | inconclusive: 3.98 µM [inhibitor, partial curve, poor fit] |
